For one molecule, binding results are on record in publication PMC7733952.

The target of the assay is T1, endogenous IRF3 of RAW264.7 cells (mouse (endogenous in RAW264.7)), P70671.
T1 chain: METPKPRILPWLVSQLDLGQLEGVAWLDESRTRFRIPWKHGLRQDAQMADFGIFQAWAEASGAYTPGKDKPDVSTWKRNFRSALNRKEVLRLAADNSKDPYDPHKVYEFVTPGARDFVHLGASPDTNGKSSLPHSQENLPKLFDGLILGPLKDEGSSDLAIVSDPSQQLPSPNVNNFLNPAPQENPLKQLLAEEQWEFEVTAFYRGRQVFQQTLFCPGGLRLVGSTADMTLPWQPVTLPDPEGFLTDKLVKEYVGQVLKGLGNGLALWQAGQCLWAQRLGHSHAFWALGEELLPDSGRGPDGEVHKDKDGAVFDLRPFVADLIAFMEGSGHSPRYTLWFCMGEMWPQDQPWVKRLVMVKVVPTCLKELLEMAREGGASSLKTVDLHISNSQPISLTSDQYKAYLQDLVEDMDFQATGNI
Kind of assay: native gel or EMSA. The note with it: remark: other sources report otherwise. On the technique in general: Mobility shift assays separate free from complexed probe on a gel.

These are yes or no findings as the source states them, for the method shown. Some results given as binding are weak or reduced against the parent protein; the word gives no strength.

B1: endogenous IRF3 of RAW264.7 cells, P70671 1-419 (protein)
chain: METPKPRILPWLVSQLDLGQLEGVAWLDESRTRFRIPWKHGLRQDAQMADFGIFQAWAEASGAYTPGKDKPDVSTWKRNFRSALNRKEVLRLAADNSKDPYDPHKVYEFVTPGARDFVHLGASPDTNGKSSLPHSQENLPKLFDGLILGPLKDEGSSDLAIVSDPSQQLPSPNVNNFLNPAPQENPLKQLLAEEQWEFEVTAFYRGRQVFQQTLFCPGGLRLVGSTADMTLPWQPVTLPDPEGFLTDKLVKEYVGQVLKGLGNGLALWQAGQCLWAQRLGHSHAFWALGEELLPDSGRGPDGEVHKDKDGAVFDLRPFVADLIAFMEGSGHSPRYTLWFCMGEMWPQDQPWVKRLVMVKVVPTCLKELLEMAREGGASSLKTVDLHISNSQPISLTSDQYKAYLQDLVEDMDFQATGNI
For B1, the binding entry is “binds”.
